Reference: the supplement of paper PMC4967469

Key:
Test in all cases: Viability of human cancer cell lines after 72 h of drug (GDSC screen)
[1] = compound: O=S(=O)(O)c1ccc2cc(N=Nc3cc(S(=O)(=O)O)c4cccnc4c3O)ccc2c1 [NSC-87877]; settings: top dose 16 µM; top dose inferred
Procedure: (§1)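 Human cancer cell lines in 384-well plates, medium with 10% serum, drug for 72 h over a 256-fold dose range (nine 2-fold or five 4-fold steps up to the top dose). Adherent lines were fixed and stained with the nucleic acid dye Syto60, suspension lines read with resazurin; signal relative to control wells, capped at 0 and 100%. One two-parameter sigmoid per drug and line, fitted in a mixed model over all curves with the slope shared within a line.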

[2] = compound: O=C(/C=C/c1ccc(CN(CCO)CCc2c[nH]c3ccccc23)cc1)NO [LAQ824]; settings: top dose 1.024 µM; top dose inferred
Procedure: as §1

[3] = compound: Cc1ccc(NC(=O)c2ccc(CN3CCN(C)CC3)cc2)cc1Nc1nc(-c2cccnc2)cs1 [Masitinib]; settings: top dose 20 µM
Procedure: as §1

[4] = compound: O=C(Nc1ccc(OC(F)(F)F)cc1)c1sccc1NCc1ccnc2ccccc12 [OSI-930]; settings: top dose 10.24 µM
Procedure: as §1

[5] = compound: O=C(Nc1cccc(Nc2ncc(Br)c(NCCc3cnc[nH]3)n2)c1)N1CCCC1 [BX-912]; settings: top dose 10.24 µM; top dose inferred
Procedure: as §1

[6] = compound: CC/C(=C(\c1ccccc1)c1ccc(OCCN(C)C)cc1)c1ccccc1 [Tamoxifen]; settings: top dose 5 µM
Procedure: as §1

[7] = compound: CCCC(=O)OCc1ccc(OC(=O)/C=C(C)/C=C/C=C(C)/C=C/C2=C(C)CCCC2(C)C)cc1 [VNLG/124]; settings: top dose 5.12 µM; top dose inferred
Procedure: as §1

[8] = compound: COc1cc(N2CCC(C(N)=O)CC2)ccc1Nc1nc(N)c(Cl)c(Nc2ccccc2S(=O)(=O)C(C)C)n1 [HG-5-88-01]; settings: top dose 10 µM; top dose inferred
Procedure: as §1

[9] = compound: Cc1c(N)nc([C@H](CC(N)=O)NC[C@H](N)C(N)=O)nc1C(=O)N[C@H](C(=O)N[C@H](C)[C@@H](O)[C@H](C)C(=O)N[C@H](C(=O)NCCc1nc(-c2nc(C(=O)NCCC[S+](C)C)cs2)cs1)[C@@H](C)O)[C@@H](OC1OC(CO)C(O)C(O)C1OC1OC(CO)C(O)C(OC(N)=O)C1O)c1cnc[nH]1 [Bleomycin]
Procedure: as §1

[10] = compound: CN(NC(=O)CC(=O)NN(C)C(=S)c1ccccc1)C(=S)c1ccccc1 [Elesclomol]; settings: top dose 0.2 µM; top dose inferred
Procedure: as §1

[11] = top dose 50 µM, screen: GDSC drug entry 1378, top dose inferred
[12] = top dose 64 µM, screen: GDSC drug entry 190

Row | Cell Line | AUC [1] | IC50 [1] | AUC [2] | IC50 [2] | AUC [3] | IC50 [3] | AUC [4] | IC50 [4] | AUC [5] | IC50 [5] | AUC [6] | IC50 [6] | AUC [7] | IC50 [7] | AUC [8] | IC50 [8] | AUC [9, 11] | IC50 [9, 11] | AUC [9, 12] | IC50 [9, 12] | AUC [10] | IC50 [10]
1 | NCI-H716 (large intestine, suspension) | 0.969 | > 16 µM | 0.801 | 0.658 µM | 0.876 | > 20 µM | 0.923 | > 10.2 µM | 0.579 | 1.11 µM | 0.951 | > 5 µM | 0.941 | > 5.12 µM | 0.849 | > 10 µM | 0.903 | > 50 µM | 0.97 | > 64 µM | 0.651 | 0.0367 µM
2 | NCI-H1944 (lung adenocarcinoma, adherent) | 0.979 | > 16 µM | 0.227 | 0.0096 µM | 0.86 | 18.6 µM | 0.948 | > 10.2 µM | 0.853 | 8.86 µM | 0.963 | > 5 µM | 0.949 | > 5.12 µM | 0.849 | 8.29 µM | 0.469 | 2.56 µM | 0.139 | 0.265 µM | 0.439 | 0.00843 µM
3 | LAN-6 (neuroblastoma, adherent) | 0.982 | > 16 µM | 0.761 | 0.427 µM | 0.864 | > 20 µM | 0.985 | > 10.2 µM | 0.917 | > 10.2 µM | 0.981 | > 5 µM | 0.969 | > 5.12 µM | 0.889 | > 10 µM | 0.889 | > 50 µM | 0.686 | 14.7 µM | 0.668 | 0.0404 µM
4 | KYSE-50 (oesophagus, adherent) | 0.822 | 8.29 µM | 0.406 | 0.0362 µM | 0.876 | 16.9 µM | 0.928 | > 10.2 µM | 0.773 | 3.63 µM | 0.989 | > 5 µM | 0.984 | > 5.12 µM | 0.973 | > 10 µM | 0.618 | 6.4 µM | 0.701 | 13.9 µM | 0.876 | 0.169 µM
5 | PFSK-1 (medulloblastoma, adherent) | 0.985 | > 16 µM | 0.69 | 0.227 µM | 0.95 | > 20 µM | 0.972 | > 10.2 µM | 0.941 | > 10.2 µM | 0.975 | > 5 µM | 0.98 | > 5.12 µM | 0.712 | 2.58 µM | 0.491 | 2.95 µM | 0.782 | 28.4 µM | 0.277 | 0.00279 µM
6 | NCI-H1563 (lung adenocarcinoma, adherent) | 0.985 | > 16 µM | 0.863 | > 1.02 µM | 0.864 | > 20 µM | 0.985 | > 10.2 µM | 0.878 | > 10.2 µM | 0.941 | > 5 µM | 0.98 | > 5.12 µM | 0.934 | > 10 µM | 0.931 | > 50 µM | 0.691 | 15.3 µM | 0.345 | 0.00425 µM
7 | TUR (B-cell lymphoma, suspension) | 0.985 | > 16 µM | 0.343 | 0.0244 µM | 0.793 | 8.38 µM | 0.91 | > 10.2 µM | 0.75 | 3.13 µM | 0.928 | > 5 µM | 0.859 | 3.72 µM | 0.919 | > 10 µM | 0.542 | 4.04 µM | 0.735 | 17.5 µM | 0.77 | 0.0704 µM
8 | TT (thyroid, adherent) | 0.97 | > 16 µM | 0.644 | 0.188 µM | 0.976 | > 20 µM | 0.978 | > 10.2 µM | 0.885 | > 10.2 µM | 0.98 | > 5 µM | 0.972 | > 5.12 µM | 0.977 | > 10 µM | 0.815 | 42.3 µM | 0.84 | > 64 µM | 0.68 | 0.049 µM
9 | OCI-AML5 (acute myeloid leukaemia, suspension) | 0.977 | > 16 µM | 0.226 | 0.0111 µM | 0.843 | 12.4 µM | 0.931 | > 10.2 µM | 0.371 | 0.292 µM | 0.987 | > 5 µM | 0.438 | 0.221 µM | 0.622 | 1.31 µM | 0.872 | 40.5 µM | 0.288 | 1.08 µM | 0.98 | > 0.2 µM
10 | NCI-H1155 (large cell lung carcinoma, suspension) | 0.989 | > 16 µM | 0.735 | 0.258 µM | 0.932 | > 20 µM | 0.965 | > 10.2 µM | 0.959 | > 10.2 µM | 0.986 | > 5 µM | 0.991 | > 5.12 µM | 0.993 | > 10 µM | 0.851 | 28.4 µM | 0.885 | 48.4 µM | 0.355 | 0.00539 µM
11 | HGC-27 (stomach, adherent) | 0.979 | > 16 µM | 0.262 | 0.0153 µM | 0.878 | 15.1 µM | 0.97 | > 10.2 µM | 0.762 | 3.15 µM | 0.934 | > 5 µM | 0.983 | > 5.12 µM | 0.871 | 7.08 µM | 0.356 | 1.34 µM | 0.318 | 1.36 µM | 0.417 | 0.0077 µM

IC50 is the fitted dose that halves viability relative to control wells, and lower means more sensitive; fits outside the tested doses are given as limits. The AUC spans the tested range (256-fold, ending at the top dose) of the same fit; it is 1 without any effect and falls as sensitivity rises. For some assays here: Where the top dose is marked as inferred, it was derived from the fitted curves, not read from the paper. For some assays here: Drugs with an entry number were screened twice under separate entries, and the two screens often disagree.
